Data reported in PubChem BioAssay AID651820 (National Center for Advancing Translational Sciences (NCATS), 2012).
Hit rate of the full screen: of about 340,000 compounds, about 12,000 (3.5%) were called active. Inconclusive results, whose numbers are uncertain, are shown with a selection of clear calls. The call rests on the fitted dose curve; in most records, active means well fitted inhibition curve with a large enough effect; inconclusive means small, poorly fitted or top-dose-only effect, or another doubt; inactive means no such curve, though single readings can be large or run the other way. Potencies of inconclusive entries are left out as doubtful fits.

assay: qHTS Assay for Inhibitors of Hepatitis C Virus (HCV); conditions: Huh7.5.1 HCVcc-Cre (HCVcc is cell-culture hepatitis C virus) infection, luciferase reporter, 44 h; activity change, negative = inhibition: at 41.8 µM (top of the series) unless noted
Procedure, shortened: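 Infectious HCVcc-Cre (~0.5 moi) was added to cells just after compound, with cells seeded 4 h earlier at 1,000 per well. Luciferase activity after 44 h culture reported infection; substrate was incubated 15 min at room temperature before reading.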
On the % scale 0 is the no-effect control and ±100 the full control effect; potency means the concentration at half of the fitted maximal effect; tags describe the fitted curve by direction and shape.

Structure (SMILES)	Potency	activity change, negative = inhibition
CCOC(=O)c1c(NC(=O)CSc2nc3ccccc3[nH]2)sc2c1CC(C)(C)NC2(C)C	inconclusive [inhibitor, partial curve]	
COCCn1c(SCC(=O)N2CCCCC2)nc2cccnc21	inconclusive [inhibitor, single point]	
COc1cc(C(O)c2nc3ccccc3s2)cc(OC)c1OC (stereo unspecified)	active: 7.08 µM	
O=C(COC(=O)c1cn(-c2ccccc2)nc1-c1ccccc1)c1cccc([N+](=O)[O-])c1		inactive: -16.6%
CCOC(=O)c1cc(C(C)=O)n2ccccc12	inconclusive [inhibitor, single point]	
Cc1sc(N/N=C/c2ccco2)nc1-c1ccccc1	inconclusive [inhibitor, partial curve]	
Oc1ccccc1/C=N/Nc1ccccc1		inactive: -7.68%
O=C(CCCc1ccccc1)N1CCN(C2CCCCC2)CC1		inactive: 11.6%
CC1CCN(CC(O)COc2ccc(C(=O)c3ccccc3)cc2)CC1 (stereo unspecified)	inconclusive [inhibitor, partial curve]	
C=C(C)COc1ccc(-c2ncncc2-c2ccc(Br)cc2)c(O)c1	inconclusive [inhibitor, single point]	
COc1ccc(C(=O)N2CCCC(Nc3ccc(F)cc3)C2)cc1F (stereo unspecified)		inactive: -8.75%
CN1C(=O)C(=Cc2c(OCc3cnc(Cl)s3)ccc3ccccc23)C(=O)N(C)C1=O	inconclusive [inhibitor, single point]	
CCn1c(SCC(=O)N/N=C/c2cc(OC)c(OC)c(OC)c2)nc2ccccc21	inconclusive [inhibitor, partial curve]	
CCc1cccc(NC(=O)Cn2ncn3c(cc4ccccc43)c2=O)c1	inconclusive [inhibitor, single point]	
Cc1ccc(F)cc1NC(=O)COC(=O)C1CCN(c2ccc(C(F)(F)F)cn2)CC1		inactive: 9.31% [at 8.37 µM]
CC(=O)CCc1ccc(OCCCOc2cccc3cccnc23)cc1	inconclusive [inhibitor, single point]	
CCOc1ccccc1-c1nc(-c2cc3ccccc3nc2OC)no1	active: 11.2 µM	
S=C(NCCN1CCOCC1)Nc1ccc(Cl)cc1		inactive: 6.61%
CCOC(=O)c1c(NC(=O)CCl)sc(C(=O)N(CC)CC)c1C	inconclusive [inhibitor, single point]	
CCOC(=O)C1(Cc2ccccc2)CCN(Cc2ccc(C3CCCCO3)s2)CC1 (stereo unspecified)	inconclusive [inhibitor, single point]	
CCN(CC)S(=O)(=O)c1ccc(O)c(C(=O)OCC(=O)NC2CCCC2)c1	inconclusive [inhibitor, single point]	
